Experimental findings from ChEMBL document CHEMBL4888484, “Replenishing the malaria drug discovery pipeline: Screening and hit evaluation of the MMV Hit Generation Library 1 (HGL1) against asexual blood stage Plasmodium falciparum ,using a nano luciferase reporter read-out” (2022) are described below.

The campaign covered roughly 150,000 compounds. About 540 (0.36%) showed an effect of 50% or more. This is one part of the list.

The % Inhibition is the relative decrease from the control value, in per cent.

The subject of this experiment is Plasmodium falciparum. The experiment is described as follows: Primary screen in NF54 nanoGlo assay, in single point, at 2uM, 72h; a lower Z score goes with more inhibition. The note with it: timepoint 72 hour. It counts as functional, Erythrocyte.
Take `Cc1ccnc2nc(C(=O)OCc3cccc4cccnc34)nn12`: the “% Inhibition” value is reported as 11% and the Z score is -1.53.

For the molecule `O=C1NC2(CCCC2)C(=O)N1c1nc(C(F)(F)F)cs1`, the “% Inhibition” value was -10% and the Z score was found to be 1.38.

`CC(C)CCC(=O)NCC(=O)NCC1CCCOC1C(C)(C)C` (configuration not stated): the “% Inhibition” value is on record as -5% and the Z score was 0.97.

For `c1cnn(Cc2ccc(-c3nc([C@H]4CCOC4)no3)o2)c1`, the “% Inhibition” value is on record as -8% and the Z score is on record as 1.58.

As to `Cc1cccc(N2C(=O)c3ccc(C(=O)Nc4cccc(NC(=O)c5c(-c6ccccc6Cl)noc5C)c4)cc3C2=O)c1`, the “% Inhibition” value was 13% and the Z score was -1.64.

On to `C[C@]1(Cc2cccc(F)c2)CCCN1C(=O)c1cnn2c1CCC2`, for which the “% Inhibition” value amounted to 1% and the Z score is given as -0.14.

Consider `O=C(C1CC1c1ccc2c(c1)OCCO2)N1CCCC(n2ccnn2)C1` (configuration not stated), for which the “% Inhibition” value was 6% and the Z score is listed as -0.89.

In the case of `Cc1coc(-c2ccc(C)c(S(=O)(=O)N3CCCC[C@H]3C(=O)O)c2)n1`, the “% Inhibition” value is on record as -8% and the Z score was 1.37.

On to `Cc1cccnc1N(C)C(=O)c1ccnc(C2CC2)n1`, for which the “% Inhibition” value is given as -5% and the Z score turned out to be 0.98.

Turning to `COc1ccc(C(=O)NCC(=O)Nc2ccc3c(c2)OCCCO3)cc1`, the “% Inhibition” value was -16% and the Z score is on record as 2.13.

With `CCOC(=O)CN(CC1CC1)C(=O)CCc1ccc(F)cc1`, the “% Inhibition” value is given as -9% and the Z score came to 1.4.

For `CC(C)C1C(c2ccccc2)NC(c2ccccc2)CC1(O)c1ccc(F)cc1` (configuration not stated), the “% Inhibition” value came out at 5% and the Z score was -0.6.

Take `Cc1ccccc1N1CCN(c2ncccc2CNC(=O)[C@@H]2C[C@@H](O)CN2)CC1`: the “% Inhibition” value is listed as -7% and the Z score is on record as 1.03.

As to `COc1ccc([C@H]2C(=O)N(C3CCCCCC3)CC(=O)N2Cc2ccc(F)cc2)cc1`, the “% Inhibition” value is listed as 0% and the Z score is listed as -0.01.

Take `C#CC(CC)(CC)NC(=O)COc1ccccc1F`: the “% Inhibition” value is recorded as -5% and the Z score is reported as 0.67.

`O=C(c1ccc(Cl)c(S(=O)(=O)N2CCCCCC2)c1)N(C1CCCC1)C1CC1`: the “% Inhibition” value is recorded as -10% and the Z score is 0.91.

Consider `CC(C)(C)OC(=O)N1CCc2nccc(O)c2C1`, for which the “% Inhibition” value is -7% and the Z score came to 1.31.

For the molecule `COc1cc(Cc2ncnn2C2Cc3ccccc3C2)cc(OC)c1OC`, the “% Inhibition” value is listed as -10% and the Z score came out at 1.

Take `Cc1ccc(C(=O)N(C)CCN(C)C(=O)c2ccc(Cl)cn2)c(C(C)C)n1`: the “% Inhibition” value was 11% and the Z score was -1.45.

Take `Cc1nnc(C2CCN(CC(=O)Nc3ccc(C)c(Cl)c3)CC2)s1`: the “% Inhibition” value is -5% and the Z score is 0.92.

Take `CCCN(CCC)c1cc(Oc2cc(C)ccc2Cl)ncn1`: the “% Inhibition” value is on record as 22% and the Z score was -2.48.

With `Cc1cc2c(cc1C(=O)N1CCC[C@H](Cn3ccnc3)C1)OCCO2`, the “% Inhibition” value is on record as -17% and the Z score stood at 1.48.

Consider `Cc1cc(NC(=O)c2cnc3c(C)cccn3c2=O)[nH]n1`, for which the “% Inhibition” value is given as 1% and the Z score is recorded as -0.12.

In the case of `O=C(O)c1cc(S(=O)(=O)N2CC[C@H](c3ccccc3)C2)cs1`, the “% Inhibition” value is -17% and the Z score was 2.1.

As for `O=C1CCN(c2ncc(-c3cc(F)ccc3OCC(F)(F)F)cn2)CCN1`, the “% Inhibition” value is 3% and the Z score is -0.57.

For `O=C(O)CC[C@H]1CCCN(c2nc(C3CC3)nc3[nH]ccc23)C1`, the “% Inhibition” value is -14% and the Z score came out at 1.75.

As for `Clc1cccc(-c2nc(-c3cccc4ccccc34)c(-c3ccccc3)[nH]2)c1`, the “% Inhibition” value was -4% and the Z score came to 0.56.

In the case of `COc1ccc(C)cc1-c1cnc2nncn2c1`, the “% Inhibition” value is -3% and the Z score is given as 0.55.

For `CC(C)c1nc([C@H]2CCCN(Cc3nccc4c3CCCC4)C2)no1`, the “% Inhibition” value came to 32% and the Z score is on record as -3.71.

`Cc1ccc(C)c(C(=O)N2CCCC[C@H]2C(=O)N2CCOCC2)c1`: the “% Inhibition” value was 3% and the Z score is given as -0.67.

For `Cc1nn(C)c(C)c1S(=O)(=O)N1CC[C@H](S(=O)(=O)c2ccc(Cl)cc2)C1`, the “% Inhibition” value was found to be 1% and the Z score was -0.21.

Consider `COc1ccc(-c2ccc(CNC(=O)[C@@H]3CCCN3)s2)cc1`, for which the “% Inhibition” value is reported as -7% and the Z score is 0.66.

`O=S(=O)(CCC1CC1)N1CCc2cccc(Br)c2C1`: the “% Inhibition” value is -2% and the Z score was found to be 0.35.

Take `CN(Cc1ncc[nH]1)C(=O)C1(N(C)CCc2ccccc2)Cc2ccccc2C1`: the “% Inhibition” value is reported as 11% and the Z score is reported as -1.37.

For `Cc1cnc(C(=O)NC[C@H](O)Cn2ccnn2)c(C)c1`, the “% Inhibition” value came out at 4% and the Z score is reported as -0.58.

As to `CC(C)(C)C1CC(NC(=O)C2CC=CC2)CCO1` (configuration not stated), the “% Inhibition” value turned out to be 36% and the Z score is -4.91.

Take `CCOCCCN1C(=O)c2nc3ccccc3n2C[C@@]1(C)C(=O)NC1CCCCCCC1`: the “% Inhibition” value is on record as -6% and the Z score is on record as 0.57.

For `COc1ccc(NC(=O)NC[C@]2(C)CCC[C@]3(C)c4ccc(C(C)C)cc4CCC23)c(OC)c1` (some centres not stated), the “% Inhibition” value is reported as 6% and the Z score was -0.52.

Consider `C#C[C@@H](NC(=O)c1cc(Cl)c2c(c1)OCCCO2)C1CCOCC1`, for which the “% Inhibition” value was -6% and the Z score is listed as 0.95.

In the case of `c1ccc(CN2CCN(CCCc3c[nH]c4ccccc34)CC2)cc1`, the “% Inhibition” value is -5% and the Z score is listed as 0.82.

In the case of `C[C@@H](c1ccccc1)n1c(NC(=O)c2ccc(Cl)cc2)c(S(=O)(=O)c2ccccc2)c2nc3ccccc3nc21`, the “% Inhibition” value is recorded as -15% and the Z score came to 1.3.
